Structures are written as SMILES. Out of some 52,000 compounds screened, about 4,300 (8.3%) were called active. Rule as the data show it: active = survival mostly below about 52% (no sharp cut-off); inactive = mostly above about 56%. The list shows a part of the results.

The test system of the assay is DeltatarO mutant. Nature of the assay: S. aureus survival, RN4220 and DeltatarO strains – OD600, teichoic acid synthesis inhibitors, primary screen (AID 463173). As to conditions: S. aureus RN4220 wild type/DeltatarO growth, OD600, 18 h, hits give low values, screened at 18.75 µg/mL (by protocol).
For `CCOc1ccc(CN2C(=O)c3ccccc3Sc3ccc(C(=O)O)cc32)cc1`, the survival is inactive: 77%.

On to `Cc1ccc(CCNC(=O)c2ccc3c(c2)N(Cc2cccc(Cl)c2)C(=O)c2ccccc2S3(=O)=O)cc1`, for which the survival was inactive: 105%.

For `O=C(Nc1cccc(C(F)(F)F)c1)C1CCCN1S(=O)(=O)c1cccc2nsnc12` (stereo not given), the survival is inactive: 78%.

Consider `Cc1cc(C)cc(OC(C)C(=O)Nc2c(C(=O)c3ccccc3)oc3ccccc23)c1` (stereo not given), for which the survival was active: 17%.

Turning to `CSc1ccc(C2c3c(oc4cc(C)cc(C)c4c3=O)C(=O)N2Cc2ccco2)cc1` (stereo not given), the survival was inactive: 57%.

`CCCN(CCC)S(=O)(=O)c1ccc(C(=O)Nc2sc3c(c2C(=O)OC)CCN(CC)C3)cc1`: the survival is inactive: 82%.

In the case of `CCN(C(=O)CSc1nc(-c2ccc(C(C)C)cc2)no1)c1cccc(C)c1`, the survival is inactive: 84%.

As for `Cc1ccc(-n2c(-c3ccco3)nc3c(cnn3-c3ccccc3Cl)c2=O)cc1`, the survival is inactive: 128%.

For the compound `Cc1cccc(C(=O)Nc2nnc(S(=O)(=O)N(C)c3ccccc3C)s2)c1`, the survival is active: 32%.

For `COc1ccc(CNC(=O)CCCn2nc(C)c3c(C)n(-c4ccccc4)nc3c2=O)cc1`, the survival was inactive: 89%.

As for `COc1ccc(OC)c(NS(=O)(=O)c2ccc(-c3cc(C)no3)s2)c1`, the survival was inactive: 88%.

For the compound `COc1ccc(CCNS(=O)(=O)c2cc(-c3cc(C)no3)ccc2C)cc1OC`, the survival was inactive: 88%.

Regarding `Cc1ccc(Cl)cc1Nc1nn2c(=O)c3ccc(C(=O)N4CCCC(C)C4)cc3nc2s1` (stereo not given), the survival was inactive: 73%.

As for `CC(C)c1cnc2c(c1SCC(=O)Nc1cccc(F)c1)c(=O)n(C)c(=O)n2C`, the survival is inactive: 81%.

On to `O=C(c1cc2ccccc2oc1=O)N(Cc1ccc(F)cc1)Cc1ccco1`, for which the survival is active: 41%.

Consider `CCc1ccc(CN2CCc3nc(N4CCN(CC)CC4)ncc3C2)cc1`, for which the survival was inactive: 70%.

On to `CN(C)c1ccc(CNC(=O)CCn2cccn2)cc1`, for which the survival was inactive: 93%.

Turning to `CCOC(=O)c1cc(OC(=O)c2ccccc2C)n(-c2ccccc2)n1`, the survival was inactive: 87%.

Take `COCCCNC(=O)C1CCN(c2nc3ccc(C)cc3[nH]2)CC1`: the survival is inactive: 95%.

For the compound `COc1cccc(N2CCN(C(=O)CCS(=O)(=O)c3ccc4c(c3)oc(=O)n4C)CC2)c1`, the survival is inactive: 88%.

For `Cc1ccc(S(=O)(=O)N2CCC(C(=O)Nc3ccc(C)c(Cl)c3)CC2)cc1`, the survival is inactive: 124%.

As to `CCc1ccc(-c2csc(Nc3ncccn3)n2)cc1`, the survival is inactive: 87%.

As for `CCOC(=O)c1c(C)[nH]c(C)c1S(=O)(=O)N1CCN(c2cccc(C(F)(F)F)c2)CC1`, the survival was inactive: 128%.

As for `CCN(CC)C(=O)Cn1c(=O)n(-c2ccc(Cl)cc2)c(=O)c2c3c(sc21)CCC3`, the survival is inactive: 82%.

In the case of `COc1ccc(CCNC(=O)C(=O)NCC(c2cccs2)S(=O)(=O)c2ccc(C)cc2)cc1` (stereo not given), the survival is inactive: 69%.

As to `O=C1c2[nH]nc(-c3ccccc3O)c2C(c2cccc(OCc3ccccc3)c2)N1CCO` (stereo not given), the survival is inactive: 67%.

Regarding `COc1ccc(C(=O)COC(=O)C(Cc2c[nH]c3ccccc23)NC(=O)c2ccc(C(C)(C)C)cc2)cc1` (stereo not given), the survival is inactive: 92%.

As to `Cc1cn2c(=O)cc(COC(=O)c3cccc(NC(=O)c4ccccc4C)c3)nc2s1`, the survival was inactive: 81%.

For `COc1ccc(-n2nc(C)c3c(C(F)(F)F)cc(-c4cccnc4)nc32)cc1`, the survival was inactive: 56%.

Turning to `CCCSc1nc2c([nH]c3ccccc32)c(=O)n1C`, the survival is inactive: 85%.

On to `CN1CCN(C(=O)/C=C/c2ccccc2)CC1`, for which the survival is inactive: 77%.

Turning to `CCc1ccc(NS(=O)(=O)c2ccc3[nH]cc(C(=O)NCCCOC(C)C)c(=O)c3c2)cc1`, the survival was inactive: 83%.

Turning to `COc1ccccc1CNC(=O)CSC1=Nc2ccccc2N=C(c2ccc(F)cc2)C1`, the survival was inactive: 101%.

For `Cc1ccc(Cl)cc1N1CCN(S(=O)(=O)c2ccc3c(c2)CCN3C(=O)C2CCC2)CC1`, the survival was inactive: 78%.

As for `CC(C)c1nc2ccc(C(=O)Nc3ccccc3F)cc2o1`, the survival is inactive: 87%.

Turning to `Cc1cc(NC(=O)c2cccc(F)c2)ccc1NC(=O)c1ccco1`, the survival was inactive: 114%.

Regarding `N=c1c2c(-c3ccccc3)c(-c3ccccc3)n(Cc3ccco3)c2ncn1CCO`, the survival was inactive: 136%.

As to `CCN(Cc1ccccc1)C(=O)c1cnn(-c2ccc(F)cc2)c1-n1cccc1`, the survival is inactive: 79%.

Take `Cc1ccc(NC(=O)c2cnn3c2NC(c2ccccc2)=CC3c2ccccc2)cc1` (stereo not given): the survival is inactive: 98%.

In the case of `CCCn1c2ccccc2c2nnc(SCC(=O)Nc3cccc(C(C)=O)c3)nc21`, the survival is inactive: 83%.

With `COc1ccccc1OC(C)C(=O)Nc1cccc(-c2nc3ccccc3o2)c1` (stereo not given), the survival was active: 18%.

In the case of `CC(=O)c1ccc(NC(=O)Cn2nc(N3CCN(c4ccccc4)CC3)ccc2=O)cc1`, the survival was inactive: 79%.

As to `CC(=O)c1sc(N2C(=O)c3oc4ccccc4c(=O)c3C2c2ccc(C)cc2)nc1C` (stereo not given), the survival was inactive: 90%.

As for `CCNc1nc(NC(N)=S)nc(NC(C)(C)C)n1`, the survival is inactive: 94%.

For `COc1ccc(-c2nc3c(c(SCC(=O)N4CCCCC4)n2)Cc2cc(Cl)ccc2O3)cc1`, the survival is inactive: 95%.

In the case of `Cc1[nH]c(=O)[nH]c(=O)c1/C=N\NC(=O)c1cc2ccccc2o1`, the survival is inactive: 79%.

For the compound `Cc1ccc(NC(=O)Cc2coc3ccc(C(C)C)cc23)cc1Cl`, the survival is active: 37%.

Consider `CN(C)c1ccc(CNC(=O)Cn2c(=O)oc3cc(S(=O)(=O)N4CCCCCC4)ccc32)cc1`, for which the survival was inactive: 74%.

As to `Cc1ccc(-n2ncc(C(=O)N3CCCCC3)c2C2CCN(C(=O)OC(C)(C)C)CC2)c(C)c1`, the survival was inactive: 102%.

Consider `CCCS(=O)(=O)c1nc(S(=O)(=O)c2ccc(C)cc2)c(NC)s1`, for which the survival is inactive: 89%.

Turning to `COc1ccc(-n2c(=O)[nH]c3cc(C(=O)NCCc4ccccc4)ccc3c2=O)cc1OC`, the survival is inactive: 94%.

In the case of `CCOC(=O)c1c(NC(=O)c2ccc(OC)cc2)sc2c1CCCCC2`, the survival was active: 2%.

Consider `O=C(COc1ccccc1)Nc1ccc2nc(SCC(=O)N3CCOCC3)sc2c1`, for which the survival was inactive: 73%.

As for `COc1ccc(NC(=O)c2oc3ccccc3c2NC(=O)COc2ccc(C(C)C)cc2)c(OC)c1`, the survival was inactive: 88%.

As for `O=C(Nc1ccccc1Cl)c1sc2cccc(Cl)c2c1Cl`, the survival was inactive: 63%.

`Cn1cnnc1SCc1nc2ccccc2[nH]1`: the survival is inactive: 96%.

As to `COc1cccc(NC(=O)Cn2c(=O)n(Cc3ccccc3)c(=O)c3ccccc32)c1`, the survival is inactive: 125%.

In the case of `Cc1ccc(N(CC(=O)Nc2ccc(Cl)cc2)S(=O)(=O)c2cccc3nonc23)cc1`, the survival was inactive: 92%.

Turning to `Nc1nc(=S)[nH]c2c1C1(CCCC1)Cc1ccccc1-2`, the survival was inactive: 99%.

As to `CN1C(C(=O)Nc2ccc(OC(F)(F)F)cc2)=CC(c2cccs2)=NS1(=O)=O`, the survival was active: 31%.

In the case of `Cc1ccc(S(=O)(=O)N2C(=O)CCC2C(=O)NCc2ccco2)cc1` (stereo not given), the survival is inactive: 77%.

Turning to `O=C(Nc1ccccc1)C(Cc1cccs1)c1nn[nH]n1` (stereo not given), the survival is inactive: 95%.

Turning to `CCn1cc(C(=O)NCc2ccc(Cl)cc2)c(=O)c2cc(S(=O)(=O)N(C)C3CCCCC3)ccc21`, the survival is inactive: 70%.

Take `CCOC(=O)C1=C(CN2CCN(c3cccc(Cl)c3)CC2)NC(=O)NC1c1ccc(Cl)cc1` (stereo not given): the survival is inactive: 69%.

`CC(C)(C)c1ccc(OCc2nnc(-c3ccccc3)o2)cc1`: the survival is inactive: 49%.

Regarding `COc1ccccc1NC(=O)N1CCN(Cc2ccccc2)CC1`, the survival is inactive: 87%.

Take `Cc1ccc(CSc2nnc3[nH]c(=O)cc(-c4ccccc4)n23)cc1`: the survival was inactive: 78%.

In the case of `O=C(CSc1nnc(-c2ccc(F)cc2)o1)N1CCCc2ccccc21`, the survival is inactive: 72%.

For the compound `COc1cc(OC)c(NS(=O)(=O)c2ccc3oc(=O)c4ncn(C)c4c3c2)cc1Cl`, the survival is inactive: 118%.

With `COc1ccc(N2CCN(CCCNC(=O)Nc3ccccc3)CC2)cc1`, the survival was inactive: 102%.

Turning to `COc1ccc(C2C=C(c3ccc(Cl)c(Cl)c3)Nc3ncnn32)cc1` (stereo not given), the survival was active: 6%.

`C/C(=N/NC(=O)CC1N=C(Cc2ccccc2)NNC1=O)c1ccco1` (stereo not given): the survival is inactive: 82%.

As for `O=C(CCC1N=C2c3ccccc3N=C(SCc3ccc(Cl)cc3)N2C1=O)N1CCN(c2ccccc2)CC1` (stereo not given), the survival is inactive: 91%.

On to `COc1ccc(-n2c(SCC(=O)NCc3ccc(C)cc3)nc3n[nH]c(C)c3c2=N)cc1`, for which the survival was inactive: 87%.

Regarding `COc1ccc(OC)c(N=c2oc3cc(O)ccc3cc2C(=O)Nc2ccccn2)c1`, the survival is inactive: 70%.

As for `Fc1ccc(-c2nc(Nc3cccc(C(F)(F)F)c3)nc3c2COc2ccccc2-3)cc1`, the survival is inactive: 54%.

Consider `COC(=O)c1sccc1S(=O)(=O)N(CC(=O)NCc1ccc(C)cc1)c1ccc(C)cc1`, for which the survival was inactive: 72%.

For the compound `O=C(NCCc1ccncc1)Nc1c[nH]c2ccccc2c1=O`, the survival is inactive: 89%.

With `Cc1cccc(Cc2c(C)nc3c(-c4ccccc4)c(C)[nH]n3c2=O)c1`, the survival was active: 16%.

Regarding `CCC(=O)N(Cc1cccnc1)Cc1cc2cc(OC)ccc2[nH]c1=O`, the survival was inactive: 89%.

For the compound `CC1CCCN(S(=O)(=O)c2ccc3c(c2)CCN3C(=O)CCC(=O)O)C1` (stereo not given), the survival is inactive: 96%.

As for `Cc1cc(C(=O)Nc2ccc(-n3c(C)nc4ccccc4c3=O)cc2)ccc1[N+](=O)[O-]`, the survival is inactive: 131%.

Take `CCN1CCN(C(=O)c2cccs2)CC1`: the survival is inactive: 99%.

In the case of `COc1ccc(NC(=O)CCCn2nc(C)c3sc4ccccc4c3c2=O)cc1`, the survival is inactive: 81%.

Regarding `COc1ccc(S(=O)(=O)NCCSc2nnnn2-c2ccccc2)cc1`, the survival was inactive: 66%.

As for `O=C1Nc2ccccc2C(=O)N2CCCC12` (stereo not given), the survival was inactive: 80%.

On to `CCN(Cc1ccccc1)S(=O)(=O)c1ccc(-c2coc(C)n2)cc1`, for which the survival is inactive: 99%.

Consider `CC(CNC(=O)c1ccc2nc(Cc3ccccc3)oc2c1)c1ccccc1` (stereo not given), for which the survival was inactive: 70%.

With `Cc1cc(-n2c(C)nc3ccccc3c2=O)ccc1NC(=O)C(F)(F)F`, the survival was inactive: 69%.

`O=C(Cn1ncc2c3ccccc3n(Cc3ccc(F)cc3)c2c1=O)NCc1cccs1`: the survival is inactive: 92%.

(Values after PubChem BioAssay AID463173 (ICCB-Longwood Screening Facility, Harvard Medical School, 2010).)
